Measurements: patent US20100015650

Test system: BRB1 tyrosine kinase substrate peptide
Sequence (chain, as listed by the source): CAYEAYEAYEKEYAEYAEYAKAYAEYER

Row | Substance | Signal to Noise ratio with BRB1 Peptide (TR-FRET kinase assay; kinase 0.5 nM) | further results
1 | FGFR1 (sequence left out) | 26.4 | 
2 | KDR (sequence left out) |  | Signal to Noise ratio with BRB1 Peptide (TR-FRET kinase assay; kinase 0.25 nM): 16.9
3 | EGFR (sequence left out) | 10 | 
4 | JAK1 (sequence left out) |  | Signal to Noise Ratio with BRB1 Peptide (TR-FRET kinase assay; kinase 7 nM): 13.7
